From PubChem BioAssay AID485344 (National Center for Advancing Translational Sciences (NCATS), 2010)
The whole screen tested about 340,000 compounds, of which about 6,900 (2%) were called active. No stated cut-off is given here; in the data, active means inhibition above about 30%; inactive means below that, where a call was filed. Only a part is listed here, and it is no random draw. Where no call is shown, the source filed none.

target: D(2) dopamine receptor (Homo sapiens) (UniProt P14416); assay: HTS Assay for Allosteric Antagonists of the Human D2 Dopamine Receptor: Primary Screen for Antagonists; conditions: HEK293 TREx D2 cells, calcium flux, dopamine EC80; at 10 µM; stronger effect = higher value; further: 0% is about no effect
UniProt P14416, sequence (P14416 whole entry, looked up): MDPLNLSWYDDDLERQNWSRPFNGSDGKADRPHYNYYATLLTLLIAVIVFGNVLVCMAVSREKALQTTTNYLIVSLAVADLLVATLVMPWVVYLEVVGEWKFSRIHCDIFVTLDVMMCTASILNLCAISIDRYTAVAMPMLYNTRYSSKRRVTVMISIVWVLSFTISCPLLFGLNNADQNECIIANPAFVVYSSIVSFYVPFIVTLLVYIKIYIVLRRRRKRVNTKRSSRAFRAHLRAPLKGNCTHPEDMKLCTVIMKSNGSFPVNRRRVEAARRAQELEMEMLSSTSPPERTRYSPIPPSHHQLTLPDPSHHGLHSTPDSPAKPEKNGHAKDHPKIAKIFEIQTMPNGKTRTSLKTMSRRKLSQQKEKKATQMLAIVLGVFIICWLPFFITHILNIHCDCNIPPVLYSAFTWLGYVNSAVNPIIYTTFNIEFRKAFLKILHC
How it was run: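 Read-out: kinetic calcium fluorescence (1 cycle/s) in inducible HEK293 T-REx D2 cells after an EC80 dopamine addition that followed 180 s compound preincubation. Loss of the dopamine response indicates antagonism.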

SMILES	inhibition
CCOc1ccc(Cn2c(-c3ccc(OCC)c(OC)c3)nc3ccccc32)cc1OC	-8.93%
CCCN(CCC)CCNC(=O)Cn1cc2c(n1)-c1c(oc(C(=O)N3CCCC3)c1C)CC2	4.3%
Cc1cccc(-c2nnn3c2nc(NCCc2ccc(S(N)(=O)=O)cc2)c2ccccc23)c1	-9.88%
COc1ccc(OC)c(NC(=O)CSc2cn(CC(=O)N3CCCCCC3)c3ccccc23)c1	0.913%
O=C(CS(=O)(=O)c1cccc2nsnc12)Nc1ccc(F)cc1	-2.81%
COC(=O)c1ccc(CN2CCCCC2)cc1	active: 35.2%
CCc1ccc(NC(=O)CN2C(=O)C(c3ccc(F)cc3)=NC2(C)C)cc1	2.35%
CCOC(=O)c1ccc(NC(=O)CSc2nc3ccccc3c(=O)n2CCNC(C)=O)cc1	14.7%
Cc1ccc(CCNC(=O)Cn2ncc3c([nH]c4ccc(C)cc43)c2=O)cc1	-1.31%
CCCCOc1ccc(Cn2c(=O)oc3ccc(C)cc32)cc1	-9.22%
COc1ccc(C)cc1NC(=O)CNC(c1ccccc1)c1ccccc1	active: 37.2%
COc1ccc(C)cc1NC(=O)C1CCN(S(=O)(=O)c2ccc3c(c2)CCCN3C(C)=O)CC1	-2.12%
O=C(Nc1ccc(N2CCN(c3ccc(F)cc3)CC2)c(C(=O)O)c1)c1ccccc1F	7.68%
CC1=C(C(=O)Nc2cccnc2)C(c2ccccc2)n2nc(SCc3ccccc3Cl)nc2N1 (stereo not drawn)	-3.03%
CCOc1ccc(CNC(=O)CCCn2nc(C)c3sc4ccccc4c3c2=O)cc1	10.7%
COC(=O)c1cc(S(=O)(=O)NCC2CCN(Cc3ccc(C)cc3)CC2)cn1C	10.5%
Cc1cccc(NS(=O)(=O)c2ccc3c(c2)[C@H]2C=CC[C@H]2[C@@H](c2ccc(F)cc2)N3)c1	-16.1%
CCc1ccc(C(=O)c2cn(CC(=O)Nc3cc(OC)ccc3OC)c3ccc(C)cc3c2=O)cc1	-17.5%
CCCOc1ccc(-c2nn(-c3ccccc3)cc2C2NC(=O)NC(C)=C2C(=O)OC)cc1 (stereo not drawn)	10.3%
COc1cc(C(=O)OCCn2c(=O)c3c(ncn3CCN(C)C)n(C)c2=O)cc(OC)c1OC	active: 33.8%
CCOc1ccccc1NC(=O)c1c(NCc2ccc(C)o2)sc2c1CCC(C)C2 (stereo not drawn)	22.3%
COc1ccc(CCNC(=O)Cn2nc(C)n3c(cc4cc(F)ccc43)c2=O)cc1OC	0.186%
COc1ccc(S(=O)(=O)Nc2ccc3oc4c(c3c2)C(=O)CC(C)(C)C4)cc1	-9.8%
COc1ccccc1CN1CCc2c([nH]c3ccccc23)C1	active: 52.6%

SMILES	inhibition
Cc1ccc(C)c(N2CCN(C(=O)c3cc4c(=O)n(Cc5ccco5)ccc4nc3C)CC2)c1	1.15%
CCCCN(C)C(=O)Cn1c(C2CC(=O)N(c3ccc(C)cc3)C2)nc2ccccc21 (stereo not drawn)	-14.7%
COc1ccc(NC(=O)CSC2=Nc3ccccc3C3=NC(CCC(=O)NCc4ccc(F)cc4)C(=O)N23)cc1Cl (stereo not drawn)	-6.42%
CCOC(=O)c1ccc(NC(=O)CC2Sc3ccc(C(F)(F)F)cc3NC2=O)cc1 (stereo not drawn)	3.78%
Cc1nn(C)c2c1c(-c1ccccc1)cc(=O)n2Cc1ccccc1Cl	-7.33%
COc1cccc(N2CCN(C(=O)C3CCN(S(=O)(=O)c4cccc5nonc45)CC3)CC2)c1	-15.6%
Cc1ccc(CN(C(=O)COc2ccc(Cl)cc2)c2ccccn2)o1	-1.37%
Cc1cc(NC(=O)CCNS(=O)(=O)c2ccc3c(c2)CCCC(=O)N3)ccc1Br	-2.74%
CS(=O)(=O)N(CC(=O)Nc1ccc(Br)cc1)c1ccccc1Br	8.64%
CCN(CC)CCOc1cccc(C(C)C)c1	active: 72.8%
COc1ccc(-c2nc(CCNC(=O)c3cccs3)cs2)cc1	12.2%
CCOc1ccc(N(C(=O)c2ccccc2F)S(=O)(=O)c2ccc3c(c2)n(C)c(=O)n3C)cc1	-18.7%
Cc1ccc(C(=O)CCC(=O)Nc2ccc(C)cc2C)cc1	7.25%
CCc1ccccc1NC(=O)N1CCC(CN2CCc3ccccc3C2)CC1	-22.6%
CC1CCN(S(=O)(=O)c2ccc3c(ccc(=O)n3CC(=O)Nc3ccc(C(C)C)cc3)c2)CC1	4.83%
COc1ccc(S(=O)(=O)N(CC(=O)NCc2ccncc2)c2ccc(C)cc2)cc1Br	active: 33.3%
Nc1nc(SCC(=O)Nc2cccc(C(F)(F)F)c2)n[nH]1	-11.2%
Clc1ccc(CN2CCN(c3ccccc3)CC2)cn1	active: 89.9%
CCOC(=O)c1c(-c2ccc(C)cc2)csc1NC(=O)c1cc(-c2ccc(Cl)cc2)on1	0.66%
COc1cccc(-n2c(=O)c3c(C)c(C)sc3n(CC(=O)Nc3ccccc3OC)c2=O)c1	24.8%
Cc1ccccc1CC1C(=O)Nc2ccc(Br)cc21 (stereo not drawn)	6.17%
CCc1ccc(CNCc2c(C(=O)O)c(C)n(Cc3c(F)cccc3Cl)c2C)cc1	-1.79%
CCOc1cccc(C(=O)N(Cc2ccc(N(C)C)cc2)CC2CCCO2)c1 (stereo not drawn)	2.05%
CCOc1cc(CNc2ccc(C(=O)O)cc2)ccc1OCc1ccccc1	-14%
